From the supplement of paper PMC3334620
Whole data set: some 33,000 sequences, median “E-score (-0.5 to 0.5)” near -0.04, cut for the highest 2% near 0.36. This is one part of the list.

These sequences were tested against T1, Hmlalpha2 (UniProt P0CY09) (assay: PBM E-score (8-mer binding enrichment) (E-score (-0.5 to 0.5)); higher = stronger / more preferred TF binding; most listed sequences are background and not binding sites). Details: protein concentration: 200 nM; construct: GST-full length.
T1 sequence: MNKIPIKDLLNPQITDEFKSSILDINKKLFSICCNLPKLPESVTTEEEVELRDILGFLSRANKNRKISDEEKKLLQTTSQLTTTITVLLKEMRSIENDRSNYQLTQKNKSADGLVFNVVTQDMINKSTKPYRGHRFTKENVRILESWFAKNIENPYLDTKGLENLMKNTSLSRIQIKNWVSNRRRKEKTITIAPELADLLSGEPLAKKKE
Procedure, shortened: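 The E-score, a modified Wilcoxon-Mann-Whitney statistic, was computed by the Universal PBM Analysis Suite for every ungapped eight-base word pooled with its reverse complement. Scans behind it were normalised with masliner after bound GST-tagged yeast transcription factors were detected with fluorescent anti-GST. The proteins, at about 100-200 nM, had been applied to universal all-10-mer Agilent arrays made double-stranded by primer extension.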

In order of rising “PBM E-score” value:
1. ACCGAGGG  -0.364
2. GACCGGGC  -0.356
3. GCATCGCA  -0.347
4. CCCGGGTC  -0.336
5. ATCGGCGA  -0.311
6. GTCCCCCA  -0.289
7. ACGGAGAT  -0.286
8. GCTCACCA  -0.286
9. ACCCAGAG  -0.283
10. GCTCCCCA  -0.282
11. AGGGCTCG  -0.275
12. GAGGTCGC  -0.272
13. CCACTCCG  -0.269
14. CTTGGGCA  -0.262
15. GCTTCCCC  -0.252
16. GAGGAGGC  -0.251
17. AAGGGTGC  -0.233
18. GCCTGCAA  -0.23
19. CCGTTCCC  -0.229
20. CTGGTCCC  -0.224
21. GCCGAAAC  -0.223
22. CTGTAGCC  -0.219
23. CCTCGCGA  -0.207
24. GGCCCACA  -0.204
25. ATAGATCC  -0.201
26. CTCGGAGC  -0.196
27. AGGCGGTC  -0.191
28. GGCTAAAA  -0.191
29. ACCCCACA  -0.188
30. GGACAAGA  -0.187
31. AGTGAGCG  -0.184
32. CCTGGCAA  -0.184
33. AAGGGGTG  -0.182
34. GCAATGCC  -0.181
35. CCTCACCA  -0.177
36. CCAACGAG  -0.159
37. ACCGCCGT  -0.159
38. TCAAGGGA  -0.156
39. AACTCATT  -0.154
40. GAGACTGA  -0.147
41. GGACCACC  -0.146
42. AGCGTTCC  -0.145
43. GGAGTGCA  -0.144
44. AGCCGATG  -0.139
45. CGAGACTC  -0.134
46. GAGCAGCA  -0.127
47. AAAGAATC  -0.124
48. CGCTACTC  -0.113
49. GGGACCAC  -0.112
50. TAGTCTCA  -0.112
51. GGGCAGGA  -0.109
52. AATCCCAA  -0.104
53. AGCATGGG  -0.103
54. CTTAGTCA  -0.0996
55. CCTCTAAC  -0.0966
56. CTACTCTA  -0.0943
57. CACGTGGC  -0.0908
58. CTTTCTTC  -0.09
59. GACAATCA  -0.0879
60. AAGCAAGC  -0.0851
61. GAATGAGA  -0.0838
62. CGAATGAG  -0.0828
63. GCCCATAA  -0.0824
64. CTAGAGGA  -0.0758
65. AACCTACT  -0.071
66. AGAGCTAG  -0.0667
67. ATGGCACG  -0.0607
68. AAGCTTCC  -0.0602
69. CTTAAACC  -0.0586
70. AGTACCGG  -0.0577
71. GATCTGCC  -0.0569
72. AGGATACG  -0.054
73. CTATTGAG  -0.0536
74. CGTTAGGC  -0.0501
75. AGTGTAGC  -0.046
76. AGTGGCCA  -0.0438
77. CAGTAATC  -0.0416
78. CCCGCCAG  -0.0399
79. GAATCGAC  -0.0392
80. CATTTCCG  -0.0392
81. ATACGATC  -0.0381
82. AAGAAATG  -0.0371
83. AGGTACTG  -0.0369
84. AGCGCGGC  -0.0315
85. GAAAAGTA  -0.0314
86. GATCTGAC  -0.0309
87. AGACGAGA  -0.0304
88. CTAACGGA  -0.0271
89. CTTCAAAC  -0.0259
90. GTAGTCAC  -0.0239
91. GTCACTAA  -0.0217
92. ACCGGATC  -0.0211
93. CTACGACA  -0.0195
94. CGAGTAAG  -0.0179
95. AGACAAAG  -0.0171
96. CTAACCTA  -0.0054
97. AGGCGCGA  -0.00293
98. CAAAAAGA  0.00302
99. ACCCTGCA  0.0038
100. CATCCTCG  0.00622
101. GTCGCTAA  0.0136
102. CCTGTTTA  0.0153
103. AAGGTTGG  0.0163
104. ACGATCCA  0.0206
105. ATCAAACA  0.0336
106. AAGTTTCC  0.0351
107. TAACCCTA  0.0393
108. ACAGCAAT  0.0423
109. GCGATGAA  0.0458
110. TTTCGAAA  0.0465
111. ATAGATTC  0.0476
112. GCGTAGCA  0.0478
113. AGCTCCAA  0.0488
114. AGCTAGCT  0.0497
115. ATATTCAA  0.0535
116. GATTAATC  0.0567
117. CGATGAAC  0.0568
118. GATAGTCC  0.0572
119. AAGTGGTA  0.0573
120. AAGCTACG  0.0599
121. ATTTGGTA  0.0623
122. ATTTTTGA  0.0657
123. AACGATTA  0.0718
124. GATTGAGA  0.0728
125. AAAAGTGT  0.0736
126. AATGTGCA  0.077
127. AGAATACC  0.0773
128. ATGGTAGA  0.079
129. ATTACCGC  0.0838
130. AGAAATAC  0.0857
131. GGGACGTA  0.0861
132. ACTTCGAT  0.0864
133. ATATGCAA  0.089
134. ACAAGTGG  0.0906
135. ATCCGTAC  0.0968
136. AACGATAC  0.097
137. GTATTGGA  0.0974
138. CGATGTAG  0.106
139. CGATTAAA  0.12
140. CCTAAGAA  0.129
141. CTGAAACA  0.135
142. CTAAGTAG  0.135
143. ATCAACCC  0.144
144. AACTTTAT  0.148
145. AGCTAGTA  0.149
146. ACTGACAT  0.154
147. ATTATGTC  0.164
148. AACTATTA  0.172
149. ACTTAATG  0.175
150. ATTAGACA  0.182
151. GGAACATA  0.184
152. AATTAGAT  0.201
153. TGTAGCAA  0.202
154. CATGCATG  0.204
155. AGTATTTA  0.209
156. AAATTAAC  0.217
157. CGGGTAAA  0.234
158. ATATTATG  0.257
159. TTGCGAAA  0.261
160. TAGTTTAA  0.261
161. AATTACCA  0.273
162. CGCTTACA  0.287
163. AACAAATT  0.3
164. ATACGTAT  0.308
165. ATTTTACG  0.31
166. CCACGTAA  0.33
167. GTAAATAC  0.356
168. TAATAACA  0.387
169. ACATGCAA  0.398
170. AACACGGT  0.402
171. CAACATGG  0.403
172. GCCATGTA  0.457
